# Source: the supplement of paper PMC8728848
# This is one part of the list.
# Legend:
# Test in all cases: glycan array binding signal (z-score within array); higher = stronger binding
# Conditions in all cases: glycan notation: IUPAC condensed, linker removed
# [1] = target: Gal(a1-3)Gal(b1-4)GlcNAc(b1-2)Man
# In short: (§1)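 Glycan array data came from 3228 arrays in the Consortium for Functional Glycomics database, and only arrays with an available protein sequence were kept. Glycan names were put into IUPAC-condensed notation, and columns mapping to the same glycan were averaged. The binding signal is a within-array Z-score, averaged across arrays of one protein sequence run at different concentrations or buffers and across linkers. A negative Z-score can be read as non-binding.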
# [2] = target: Gal(a1-3)Gal(b1-4)GlcNAc(b1-2)Man(a1-3)[Gal(a1-3)Gal(b1-4)GlcNAc(b1-2)Man(a1-6)]Man(b1-4)GlcNAc(b1-4)GlcNAc
# In short: as §1
# [3] = target: Gal(a1-3)Gal(b1-4)GlcNAc(b1-3)GalNAc
# In short: as §1
# [4] = target: Gal(a1-3)Gal(b1-4)GlcNAc(b1-6)GalNAc
# In short: as §1
# [5] = target: Gal(a1-3)Gal(b1-4)[Fuc(a1-3)]GlcNAc
# In short: as §1
# [6] = target: Gal(a1-3)Gal(b1-4)[Fuc(a1-3)]GlcNAc(b1-2)Man(a1-3)[Gal(a1-3)Gal(b1-4)[Fuc(a1-3)]GlcNAc(b1-2)Man(a1-6)]Man(b1-4)GlcNAc(b1-4)GlcNAc
# In short: as §1
# [7] = target: Gal(a1-3)GalNAc
# In short: as §1
# [8] = target: Gal(a1-3)[Gal(a1-4)]Gal(b1-4)GlcNAc
# In short: as §1
# [9] = target: Gal(a1-4)Gal(b1-3)GlcNAc(b1-2)Man(a1-3)[Gal(a1-4)Gal(b1-3)GlcNAc(b1-2)Man(a1-6)]Man(b1-4)GlcNAc(b1-4)GlcNAc
# In short: as §1
# [10] = target: Gal(a1-4)Gal(b1-4)Glc
# In short: as §1
# [11] = target: Gal(a1-4)Gal(b1-4)GlcNAc
# In short: as §1
# [12] = target: Gal(a1-4)Gal(b1-4)GlcNAc(b1-2)Man(a1-3)[Gal(a1-4)Gal(b1-4)GlcNAc(b1-2)Man(a1-6)]Man(b1-4)GlcNAc(b1-4)GlcNAc
# In short: as §1
# [13] = target: Gal(a1-4)Gal(b1-4)GlcNAc(b1-3)Gal(b1-4)Glc
# In short: as §1
# [14] = target: Gal(a1-4)GlcNAc
# In short: as §1
# [15] = target: Gal(a1-6)Glc
# In short: as §1
# [16] = target: Gal(b1-2)Gal
# In short: as §1
# [17] = target: Gal(b1-3)Gal
# In short: as §1
# [18] = target: Gal(b1-3)Gal(b1-4)GlcNAc
# In short: as §1
# [19] = target: Gal(b1-3)GalNAc
# In short: as §1
# [20] = target: Gal(b1-3)GalNAc(a1-3)[Fuc(a1-2)]Gal(b1-4)Glc
# In short: as §1
# [21] = target: Gal(b1-3)GalNAc(a1-3)[Fuc(a1-2)]Gal(b1-4)GlcNAc
# In short: as §1
# [22] = target: Gal(b1-3)GalNAc(b1-3)Gal
# In short: as §1
# [23] = target: Gal(b1-3)GalNAc(b1-3)Gal(a1-4)Gal(b1-4)Glc
# In short: as §1
# [24] = target: Gal(b1-3)GalNAc(b1-4)Gal(b1-4)Glc
# In short: as §1
# [25] = target: Gal(b1-3)GalNAc(b1-4)[Neu5Ac(a2-3)]Gal(b1-4)Glc
# In short: as §1
# [26] = target: Gal(b1-3)GlcNAc
# In short: as §1
# [27] = target: Gal(b1-3)GlcNAc(a1-3)Gal(b1-4)GlcNAc
# In short: as §1
# [28] = target: Gal(b1-3)GlcNAc(a1-6)Gal(b1-4)GlcNAc
# In short: as §1
# [29] = target: Gal(b1-3)GlcNAc(b1-2)Man
# In short: as §1
# [30] = target: Gal(b1-3)GlcNAc(b1-2)Man(a1-3)[Gal(b1-3)GlcNAc(b1-2)Man(a1-6)]Man(b1-4)GlcNAc(b1-4)GlcNAc
# In short: as §1
binder,measurement,setting,value
PX9896A-bth-573-26-573 (Bacteroides thetaiotaomicron) (protein) ETNNLKTKEDMYKYFGTSKSMLTHVYSYMPQGYQLFATSGGIFTEDRYSMRDCASDDGEFGAYADNIQNTNNGNWSPIKTYDDSWTLYRGIRAANSFIAEIAQVDFTRYEHDGQYTNWMKQLKYFPYEARVLRAHYFFELARRYGDIAMPLEVLTEEEANTIGKTPFSEVISFIVSECDDAANNLPDSYVNEPGAEIGRVTKGFAMAVKSKALLYAASKLHNPSMDTELWKKSAKAAIDIINTGLYSLDPQESANNLDSKEVVLMRINGDDSDFEMFNLPLRMTAGTRTSSLIPYSNYPSQNLVDAFETVNGYKVTLENTGWVCEDPAFDPQSPYENRDKRFYRAILANGMSFKDYTIETFKGGADDGIVSQGGSPTGYFLRKYIQEATSFEPGKEAVSKHHWVIYRYAETLLTYAESMVNAFNDVNYTDETYKYSALWAINEVRKNADMPLIPSMGKDEFMERLYNEWRVEFAFEDHRFWDVRRWKIADTTQRELYGVKIEKQADGTFNFYKNLYETRNWRDCMYLYPIPQSELYKNTNLNPQNTGW,glycan array binding signal (z-score),[1],0.595
same,glycan array binding signal (z-score),[2],1.07
same,glycan array binding signal (z-score),[3],-0.107
same,glycan array binding signal (z-score),[4],0.925
same,glycan array binding signal (z-score),[5],0.702
same,glycan array binding signal (z-score),[6],2.9
same,glycan array binding signal (z-score),[7],-0.302
same,glycan array binding signal (z-score),[8],3.79
same,glycan array binding signal (z-score),[9],0.806
same,glycan array binding signal (z-score),[10],0.696
same,glycan array binding signal (z-score),[11],-0.124
same,glycan array binding signal (z-score),[12],0.471
same,glycan array binding signal (z-score),[13],-0.305
same,glycan array binding signal (z-score),[14],0.584
same,glycan array binding signal (z-score),[15],-0.739
same,glycan array binding signal (z-score),[16],-0.829
same,glycan array binding signal (z-score),[17],-0.599
same,glycan array binding signal (z-score),[18],-0.711
same,glycan array binding signal (z-score),[19],-0.329
same,glycan array binding signal (z-score),[20],-0.889
same,glycan array binding signal (z-score),[21],-0.054
same,glycan array binding signal (z-score),[22],-0.496
same,glycan array binding signal (z-score),[23],-0.08
same,glycan array binding signal (z-score),[24],-0.458
same,glycan array binding signal (z-score),[25],0.433
same,glycan array binding signal (z-score),[26],-0.711
same,glycan array binding signal (z-score),[27],-0.321
same,glycan array binding signal (z-score),[28],-0.111
same,glycan array binding signal (z-score),[29],-0.375
same,glycan array binding signal (z-score),[30],0.457
